# According to PMC4336329 (PLoS ONE, 2015):
# In all, about 310,000 compounds went through this assay and about 14,000 (4.5%) showed an effect of 50% or more. The effect is printed as a negative number. This is one part of the list.
# Biological target: human ether-à-go-go-related gene (hERG) potassium channel (human, UniProt Q12809)
# Test: primary screen, population patch clamp on CHO cells stably expressing hERG
# 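Further: peak tail current of the secondary pulse compared with the same well before compound.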
# human ether-à-go-go-related gene (hERG) potassium channel, sequence (Q12809 whole entry, looked up): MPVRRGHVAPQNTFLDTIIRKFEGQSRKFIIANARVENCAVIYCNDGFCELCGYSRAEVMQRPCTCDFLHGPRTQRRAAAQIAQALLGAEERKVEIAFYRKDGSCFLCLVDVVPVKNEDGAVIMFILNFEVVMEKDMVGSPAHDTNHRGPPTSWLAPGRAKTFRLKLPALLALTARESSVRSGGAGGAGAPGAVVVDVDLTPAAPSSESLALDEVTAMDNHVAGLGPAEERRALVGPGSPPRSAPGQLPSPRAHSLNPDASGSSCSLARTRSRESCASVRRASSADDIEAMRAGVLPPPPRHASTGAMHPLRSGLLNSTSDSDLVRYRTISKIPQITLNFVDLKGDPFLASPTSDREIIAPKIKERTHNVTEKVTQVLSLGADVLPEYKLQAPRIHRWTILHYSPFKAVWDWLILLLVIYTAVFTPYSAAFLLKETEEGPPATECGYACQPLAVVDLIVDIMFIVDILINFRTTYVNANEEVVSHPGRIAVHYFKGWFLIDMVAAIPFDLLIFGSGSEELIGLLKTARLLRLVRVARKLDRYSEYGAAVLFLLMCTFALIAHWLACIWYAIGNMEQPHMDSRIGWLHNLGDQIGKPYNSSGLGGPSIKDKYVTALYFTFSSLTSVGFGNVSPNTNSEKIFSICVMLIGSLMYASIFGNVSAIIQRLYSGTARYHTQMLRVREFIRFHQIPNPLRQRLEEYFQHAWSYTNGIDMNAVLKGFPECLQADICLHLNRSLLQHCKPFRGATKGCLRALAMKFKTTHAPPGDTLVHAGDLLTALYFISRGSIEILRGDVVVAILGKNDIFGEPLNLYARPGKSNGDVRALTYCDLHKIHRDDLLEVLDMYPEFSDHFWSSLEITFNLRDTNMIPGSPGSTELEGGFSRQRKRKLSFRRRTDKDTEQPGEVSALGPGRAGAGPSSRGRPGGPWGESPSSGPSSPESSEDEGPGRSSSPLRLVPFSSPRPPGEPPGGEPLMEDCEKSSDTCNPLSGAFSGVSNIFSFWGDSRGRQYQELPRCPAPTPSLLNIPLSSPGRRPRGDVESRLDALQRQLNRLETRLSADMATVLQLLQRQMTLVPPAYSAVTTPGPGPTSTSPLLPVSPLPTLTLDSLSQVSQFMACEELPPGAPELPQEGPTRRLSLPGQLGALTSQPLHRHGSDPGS
row,Compound,"hERG current change (%, negative = inhibition) at 10uM"
1,O=c1[nH]c2ccccc2nc1CCc1ccccc1,35.5%
2,CCCOc1cccc(-c2cc(C(=O)N/N=C/c3ccccn3)c3ccccc3n2)c1,0.224%
3,O=C(Oc1cccc2cccnc12)c1ccc(N2C(=O)C3C4CCC(C4)C3C2=O)cc1 (centres unmarked),6.05%
4,COc1ccc(S(=O)(=O)N(C)CC(=O)N2CCOCC2)cc1,-10.4%
5,COc1ccc(C(=O)C2CCCN(C(=O)c3noc4c3CCCC4)C2)cc1F (centres unmarked),-39.9%
6,CNC(=O)C1C2C=CC3(O2)C1C(=O)N(CCOC)C3C(=O)NCc1ccc(OC)cc1 (centres unmarked),19.1%
7,Cc1cccc(-n2c(C)n[nH]c2=S)c1C,17.4%
8,Cc1ccc(-c2nnn(CC(=O)N(CC(=O)NC3CCCC3)c3ccc(F)c(Cl)c3)n2)o1,2.35%
9,COc1ccc(CN2CCCC(C(=O)N3CCCCC3)C2)cc1OC.O=C(O)C(=O)O (centres unmarked),-25.5%
10,COc1ccc(S(=O)(=O)NCCC(=O)NCc2ccc(F)cc2)cc1,-26.3%
11,COC(=O)CCCc1nc2ccccc2s1,8.7%
12,CCCCn1nc(C(=O)N(CCOC)c2c(N)n(CCCC)c(=O)[nH]c2=O)c2ccccc2c1=O,6.16%
13,Cl.Nc1ncnc2sc3c(c12)CCNC3,25.4%
14,CCN(Cc1ccccc1)S(=O)(=O)c1ccc(C(=O)N(CCCN(C)C)c2nc3cc(OC)ccc3s2)cc1.Cl,-58.3%
15,O=C(Nc1ccc(Br)cc1)c1cnccn1,-2.9%
16,O=C(c1cccs1)N(Cc1ccccn1)Cc1ccco1,-9.53%
17,COC(=O)c1[nH]c2ccccc2c1NC(=O)c1ccccc1F,8.73%
18,O=C(CSC(=S)N1CCOCC1)Nc1ncc2c(n1)CCCC2=O,-7.16%
19,NC(=O)COC(=O)c1ccc(-c2ccccc2)cc1,14.2%

row,Compound,"hERG current change (%, negative = inhibition) at 10uM"
1,C=CCn1c(SCC(=O)Nc2ccc3c(c2)OCCO3)nc2cc(C(=O)O)ccc2c1=O,-1.2%
2,Cc1ccc2oc(=O)cc(CN3CCN(C/C=C/c4ccccc4)CC3)c2c1,-76.9%
3,CCOC(=O)C1CCN(C(=O)CNS(=O)(=O)c2ccc(Br)s2)CC1,-28.2%
4,Nn1c(-c2ccccc2Cl)nnc1-c1ccccc1Cl,5.15%
5,O=C(CCC(=O)N1CCOc2ccccc21)Nc1ccccc1Cl,1.25%
6,CCOC(=O)c1c(C)n(C)c2ccc(OC)c(NC(=O)CCN3CCSCC3)c12,-8.68%
7,COc1ccc(-n2c(C)cc(/C=C3\C(=N)N4N=C(CC(=O)N5CCOCC5)SC4=NC3=O)c2C)c(OC)c1,12.6%
8,O=S(=O)(Nc1cccc(-n2cnnn2)c1)c1ccccc1,20.6%
9,O=C(CCNc1ccc(F)cc1)c1cccc([N+](=O)[O-])c1,-10.3%
10,COc1ccccc1CC(=O)O/N=C(\N)Cc1cccc2ccccc12,11.3%
11,CCCN1CCN(C(=O)c2cccc3c2C(=O)N(CCOC)C3)CC1,13%
12,CC(C)c1ccc(S(=O)(=O)N(C)C2(C)CCS(=O)(=O)C2)cc1 (centres unmarked),-46.9%
13,C=CCNC(=S)NNC(=O)c1ccc(OCCCC)cc1,10.2%
14,COc1ccc(OC)c(NC(=O)Cn2c(CCC(=O)O)ccc2-c2ccc(C)cc2)c1,-7.22%
15,CC(Sc1nnc(-c2cccnc2)n1C)C(=O)N1CCOCC1 (centres unmarked),-1.32%
16,COC(=O)C1=C(C)N=C2SC(C#N)=C(N)N2C1c1cc(OC)c(OC)c(OC)c1 (centres unmarked),-11.9%
17,N#CCCN1CCN(CCC#N)CC1,0.67%
18,Cc1nc2ccc(NC(=O)CSc3nnc(C)s3)cc2[nH]1,4.4%
19,CC(C)(C)OC(=O)N1CCC(CNC(=O)c2ccc(F)cc2F)CC1,-4.87%

row,Compound,"hERG current change (%, negative = inhibition) at 10uM"
1,O=C(COC(=O)c1cccc([N+](=O)[O-])c1)Nc1ccc(Cl)cn1,9.2%
2,CCO[C@@H]1OC(C(N)=O)=C[C@H](C2CCCCC2)[C@H]1CCCO,-2.51%
3,CC(C)C[C@@H](C(=O)NCc1ccco1)N1C(=O)N2CCc3c([nH]c4ccccc34)[C@@]2(C)C1=O,-16.1%
4,COc1cc(OC)cc(C(=O)N[C@H](C(=O)Nc2nc(-c3ccc(OC)c(OC)c3)cs2)C(C)C)c1,-6.07%
5,CCOC(=O)c1cc(Br)c(=O)n2ccccc12,-9.01%
6,O=C(CN1CCCC1)Nc1ccc(OCc2ccccc2)cc1,-54.1%
7,Cc1ccc(N2C(=O)CC(N(O)C3CC(=O)N(c4ccc(C)cc4)C3=O)C2=O)cc1 (centres unmarked),-9.78%
8,O=C(COC(=O)c1cc([N+](=O)[O-])ccc1N1CCOCC1)c1ccccc1Cl,-2.75%
9,O=C(c1cc(COc2ccc(F)cc2Cl)on1)N1CCN(c2cnccn2)CC1,-46.9%
10,O=C(COc1ccccc1)Nc1c2c(nn1-c1ccccc1)CS(=O)(=O)C2,-37.3%
11,Clc1ccc2c(N/N=C/c3cccc(Br)c3)ccnc2c1,-5.99%
12,Cc1nnc(SCC(=O)N(C)CC(=O)Nc2ccccc2Cl)s1,2%
13,CC1CC(C)CN(CCCNC(=O)c2ccc3c(c2)ncn3C2CCCC2)C1 (centres unmarked),-20.7%
14,CCOC(=O)c1c(C)cc(C)n2c1nc1ccccc12,-38.8%
15,O=C(CN(Cc1ccccc1)C(=O)CCC(=O)Nc1ccccn1)NCCc1ccccc1,-52.4%
16,CC1=[N+]([O-])C2(N)CCc3nonc3C2(O)C1 (centres unmarked),-0.461%
17,COc1ccc(-n2c(SCC(=O)N3CCCCC3)nc(O)cc2=O)cc1,-8.33%
18,O=C(c1cccc(NC2=NC3CS(=O)(=O)CC3S2)c1)N1CCN(c2ccc(F)cc2)CC1 (centres unmarked),8.77%
